# From article PMC4336329 (PLoS ONE, 2015)
# The whole screen tested about 310,000 compounds, of which about 2,200 (0.71%) showed an effect of 50% or more. The effect is printed as a negative number. Some of the results follow.
# Target: human ether-à-go-go-related gene (hERG) potassium channel (human, UniProt Q12809)
# Test: primary screen, population patch clamp on CHO cells stably expressing hERG
# Sequence of human ether-à-go-go-related gene (hERG) potassium channel (Q12809 whole entry, looked up): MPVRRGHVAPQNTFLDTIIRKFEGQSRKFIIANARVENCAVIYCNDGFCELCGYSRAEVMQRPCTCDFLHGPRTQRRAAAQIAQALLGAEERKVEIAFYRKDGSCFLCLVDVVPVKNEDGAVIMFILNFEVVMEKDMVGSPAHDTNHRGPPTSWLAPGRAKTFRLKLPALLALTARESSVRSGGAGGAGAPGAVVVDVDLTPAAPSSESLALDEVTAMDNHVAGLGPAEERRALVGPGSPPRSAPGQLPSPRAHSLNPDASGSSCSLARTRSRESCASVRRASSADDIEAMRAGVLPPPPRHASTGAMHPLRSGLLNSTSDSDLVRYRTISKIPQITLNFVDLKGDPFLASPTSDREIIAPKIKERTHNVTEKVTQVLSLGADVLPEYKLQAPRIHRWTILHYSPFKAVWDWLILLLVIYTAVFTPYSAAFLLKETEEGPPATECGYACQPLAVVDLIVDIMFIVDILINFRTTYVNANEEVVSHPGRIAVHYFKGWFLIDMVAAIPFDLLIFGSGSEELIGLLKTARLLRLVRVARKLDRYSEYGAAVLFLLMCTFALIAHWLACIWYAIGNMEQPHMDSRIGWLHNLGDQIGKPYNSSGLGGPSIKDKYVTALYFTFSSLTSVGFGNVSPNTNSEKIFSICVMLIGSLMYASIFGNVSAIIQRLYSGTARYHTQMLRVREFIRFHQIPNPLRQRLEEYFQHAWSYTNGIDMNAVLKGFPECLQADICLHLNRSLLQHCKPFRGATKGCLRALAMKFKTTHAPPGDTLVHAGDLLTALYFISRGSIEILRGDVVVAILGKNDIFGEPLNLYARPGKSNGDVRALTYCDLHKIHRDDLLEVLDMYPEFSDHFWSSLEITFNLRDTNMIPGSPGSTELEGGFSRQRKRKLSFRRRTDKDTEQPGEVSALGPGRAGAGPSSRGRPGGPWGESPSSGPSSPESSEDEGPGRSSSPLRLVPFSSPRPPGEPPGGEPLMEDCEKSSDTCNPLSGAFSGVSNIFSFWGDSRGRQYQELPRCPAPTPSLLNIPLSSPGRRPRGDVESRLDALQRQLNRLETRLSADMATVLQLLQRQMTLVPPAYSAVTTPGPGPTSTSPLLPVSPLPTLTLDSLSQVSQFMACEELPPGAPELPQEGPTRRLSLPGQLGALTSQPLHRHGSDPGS
row,Structure (SMILES),"hERG current change (%, negative = inhibition) at 1uM [%]"
1,CCC(=O)N1CCN(CCN=Cc2c(O)n(C)c(=O)n(C)c2=O)CC1,16.1
2,CCOc1ccccc1OCC(=O)Nc1nnc(C)s1,11.5
3,COc1ccc(CCNC(=O)CCc2cc(OC)c(OC)c(OC)c2)cc1,14.4
4,CCCCCc1ccc(OCCCC[n+]2cccc(C)c2)c(CCCCC)c1.[Cl-],-16.2
5,CC1CCCN(CCCNC(=O)CN2C(=O)CSc3ccc(S(=O)(=O)N4CCOCC4)cc32)C1 (stereo not shown),14.8
6,CCOC(=O)C1CCN(C(C)C(=O)c2c[nH]c3ccccc23)CC1 (stereo not shown),-1.89
7,CC(=O)Nn1cnc2c(c1=O)C1(CCCCC1)Cc1ccccc1-2,9.15
8,O=C(N/C=C/c1ccccc1)Nc1ccc(Cl)cc1,12.8
9,COCCN(C(=O)Cc1cccs1)C(C(=O)NC1CCCC1)c1ccc(OC)c(OC)c1 (stereo not shown),10.1
10,COC(=O)CCC(=O)OC1(C)C(=O)C=C2C=C(C3CC3)N(CC3CC3)C=C2C1=O (stereo not shown),13.7
11,Cc1nnc(SC(C)C(=O)N2CCc3ccccc32)s1 (stereo not shown),8.85
12,O=C(O)C1Cc2ccccc2CN1C(=O)c1ccco1 (stereo not shown),12.7
13,CCOC(=O)c1c(C)[nH]c(C(=O)COC(=O)c2[nH]c(C)c(C(C)=O)c2C)c1C,15.5
14,Cc1cc2c(=O)n(C)c(SCC(=O)Nc3ccccc3C)nc2s1,1.7
15,Fc1ccc(Oc2cc(N3CCOCC3)nc(-c3ccccc3)n2)c(F)c1,12.8
16,Cc1nnc(NC(=O)CCC(=O)NC2CCCCCCC2)s1,10.9
17,CC1(C)C(=O)Nc2ccccc2N1C(=O)c1ccc([N+](=O)[O-])cc1,-2.42
18,COc1cccc(CNC(=O)C2CCCN(C(=O)c3ccc(Cl)cc3)C2)c1 (stereo not shown),2.65
19,C#CC[N+]1(CC#Cc2ccccc2)CCCCC1.[I-],12.5
20,O=C(CN1CCN(C(=O)c2ccco2)CC1)Nc1cccc([N+](=O)[O-])c1,0.981
21,N#Cc1nc(-c2cccc3ccccc23)oc1NCCN1CCCCC1,-3.24
22,CCOc1ccc(N2C(=O)CC(SCCN)C2=O)cc1.Cl (stereo not shown),7.84

row,Structure (SMILES),"hERG current change (%, negative = inhibition) at 1uM [%]"
1,O=C(CSc1nnc(SCc2ccc(Cl)cc2)s1)N/N=C/c1c(Cl)cccc1Cl,-5.83
2,CC(C)C(NC(=O)c1cccs1)c1nnc(SCC(=O)Nc2nccs2)n1C (stereo not shown),4.17
3,COc1cccc2cc(C(=O)Nc3ccc(F)cc3)c(=Nc3ccc(C(=O)O)cc3)oc12,9.67
4,O=c1nc2n(c3ncccc13)CCC2,16.1
5,CN(Cc1ccccc1)c1ccc(C(=O)O)cc1[N+](=O)[O-],13.1
6,COc1cccc(-c2nc(C=O)cs2)c1,7.54
7,Cc1c(NS(=O)(=O)c2cc([N+](=O)[O-])ccc2Cl)c(=O)n(-c2ccccc2)n1C,9.07
8,O=[N+]([O-])c1ccc(NCCNCCOc2nonc2-c2ccccc2)c([N+](=O)[O-])c1,3.61
9,CCCCCSc1nnc(-c2ccccc2N)c(=O)[nH]1,-4.32
10,Cc1ccc(C(C)C)c(OCC(=O)Nc2cccc(S(=O)(=O)NC3=NCCCCC3)c2)c1,7.13
11,O=C(CSc1ccc(C(F)(F)F)cc1[N+](=O)[O-])Nc1ccc2ccccc2c1,5.53
12,Cc1ccc(NC(=O)c2ccccc2N2C(=O)C3C4C=CC(C5CC45)C3C2=O)cc1C (stereo not shown),6.27
13,CCN(CC(=O)Nc1c(F)cccc1F)C(=O)/C=C/c1ccc2c(c1)OCO2,3.1
14,Cc1c(C(=O)Nc2cccnc2)oc2ccc(Br)cc12,6.76
15,Cc1nn(-c2ccccc2)c(Cl)c1C1C(C#N)=C(N)Oc2n[nH]c(C)c21 (stereo not shown),-0.951
16,O=[N+]([O-])c1c(C(Cl)Cl)nn(-c2ccccc2)c1N1CCCC1,14.6
17,CC(C)Oc1ccc(CN2CCC(n3nccc3NC(=O)C3CC3)CC2)cc1,-68.4
18,O=[N+]([O-])c1ncccc1OCc1ccc(-c2ccccc2)cc1,23.5
19,CNCC(O)COc1ccccc1 (stereo not shown),-2.51
20,C=C(C)CNC(=S)N/N=C/c1ccccc1OCC(=O)O,15.1
21,O=C(CCc1ccc(S(=O)(=O)NCCc2ccccc2)cc1)Nc1ccc2c(c1)OCCO2,13.3
22,CCC1Oc2ccc(C)cc2N(CC(=O)N2CCOCC2)C1=O (stereo not shown),10.7

row,Structure (SMILES),"hERG current change (%, negative = inhibition) at 1uM [%]"
1,O=c1[nH]c(=O)n(-c2ccccc2Cl)c(O)c1C=NCCN1CCCCC1,3.62
2,CC1(C)CC2(CCO1)OC(=O)CC2C(=O)Nc1ccc(Cl)cc1[N+](=O)[O-] (stereo not shown),3.56
3,COc1cc(/C=C2/CCC/C(=C\c3cc(O)c(OC)c(Cl)c3)C2=O)cc(Cl)c1O,6.07
4,N#CC(C#N)=c1ccc2c(c1)N1C3=C(CCCC3)CC3CCCCC31N=2 (stereo not shown),11.2
5,Cc1ccc(Cl)cc1N1CCN(C(=O)C(=O)N2CCCCC2)CC1,12.4
6,O=C(Nc1ccc(F)cc1)c1cccc(N2C(=O)C3C4CCC(C4)C3C2=O)c1 (stereo not shown),6.35
7,CCOC(=O)C1=NN(c2ccc(Cl)cc2)C(c2ccccc2)CC1=O (stereo not shown),8.55
8,CCSCCNC(=O)c1cc(-n2cnnc2)ccc1Cl,3.2
9,COC(=O)c1ccc(C2=NOC(C)(c3sc(-c4ccc(Cl)cc4)nc3C)C2)cc1 (stereo not shown),8.01
10,Cc1cc(NC(=O)CSCC(=O)Nc2ccc(C)c(C)c2)no1,-0.301
11,CC[N+]1(CC)CC2CCC(C)(C1)C2(C)C.[I-] (stereo not shown),4.92
12,CCC(C)NC(=O)CN(c1cc(Cl)ccc1OC)S(C)(=O)=O (stereo not shown),-1.78
13,CN(Cc1ccccc1)C(=O)c1ccccc1C(=O)O,15.8
14,OC(COCc1ccccc1)Cn1cnc2ccccc21 (stereo not shown),-1.53
15,C/C(=N/NC(=O)NC12CC3CC(CC(C3)C1)C2)c1ccccc1,8.51
16,O=C(c1ccccc1-c1ccccc1)N1CCCC1,10.3
17,CCOC(=O)c1cnc(-n2nc(C)cc2C)nc1NCc1ccccc1,2.73
18,Cc1nn(-c2ccccc2)c(C)c1NC(=O)COc1ccc(Br)cc1Cl,3.62
19,O=[N+]([O-])c1ccc(Cl)cc1N1CCCCC1,17.6
20,C=CCOc1ccc2c(CC)cc(=O)oc2c1C,15
21,O=C(O)CNC(=O)c1ccc(S(=O)(=O)N2CCOCC2)cc1,-3.84
22,Nc1nnnn1/N=C/c1cc(Cl)cc(Cl)c1OCc1ccc(Cl)cc1Cl,0.564

row,Structure (SMILES),"hERG current change (%, negative = inhibition) at 1uM [%]"
1,CSc1nc2ccccc2cc1/C=C(\C#N)c1ccccc1,9.25
2,COc1cccc(/C=N/NC(=O)c2csc(-n3nc(C)cc3C(F)(F)F)n2)c1,8.96
3,Cc1c(Cl)ccc2c1NC(=O)C21NC(CCC(N)=O)[C@H]2C(=O)N(c3ccc(Cl)cc3)C(=O)[C@H]21 (stereo partly shown),16
4,O=C(CCN1C(=O)c2ccccc2C1=O)Nc1cccc(S(=O)(=O)NC2=NCCC2)c1,17
5,CCCn1c(C)c(C(=O)OCC)c(O)c(-c2ccccc2)c1=O,15.1
6,O=c1cc(CN2CCN(S(=O)(=O)c3ccccc3)CC2)nc2sccn12,10.2
7,CCC(C)n1ncn(-c2ccc(N3CCN(c4ccc(OC)cc4)CC3)cc2)c1=O (stereo not shown),4.4
8,CN(C)S(=O)(=O)Oc1ccc(Cl)cc1C(=O)Nc1ccc(F)cc1F,6.77
9,COc1cc2c(cc1OC)CN(c1nc(CN3CCOCC3)nc3sc4c(c13)CCC(C)C4)CC2 (stereo not shown),5.29
10,Nc1ccc2nc(-c3ccccc3)sc2c1,14.9
11,O=C(CSc1nc2ccccc2c(=O)n1-c1ccccc1)c1c[nH]c2ccccc12,14.6
12,COc1ccccc1NC(=O)C1CCCN(c2cc(C)nc3ncnn23)C1 (stereo not shown),-1.59
13,CCN(CC)CCNC(=S)Nc1ccc2nc(N3CCN(CC)CC3)cc(C)c2c1,11.7
14,CCOc1cccc(C2/C(=C(/O)c3ccc4c(c3)CC(C)O4)C(=O)C(=O)N2Cc2cccnc2)c1 (stereo not shown),18.4
15,O=C(Nc1ccccc1Cl)Nc1cccnc1Cl,14.1
16,Cc1ccc(-c2cccc(CN3CCN(C4CCN(C(C)C)CC4)C(CCO)C3)c2)o1 (stereo not shown),-2.71
17,Cc1nc2ccc(NC(=O)/C=C/C(=O)O)cc2nc1C,14.3
18,COc1ccc(N2C(=O)CC(NNC(=O)c3ccc(Br)s3)C2=O)cc1 (stereo not shown),8.3
19,S=C(Nc1ccc(Oc2ccc(NC(=S)NC3CCCCC3)cc2)cc1)NC1CCCCC1,6.22
20,CN1C(=O)c2ccccc2Sc2ccc(C(=O)O)cc21,11.7
21,COc1ccccc1/C=C/C(=O)OCC(=O)Nc1ccccc1Sc1ccccc1,4.88
22,CCOc1cc(CNS(=O)(=O)c2ccc3c(c2)CC(=O)N3C)cc(OCC)c1OCC,2.1
